According to the supplement of paper PMC11876631:
± gives the standard deviation of the averaged measurements. Laboratory Escherichia coli strains with one amino-acid change in an essential protein, pooled on minimal glucose agar with carbenicillin or gentamicin at twice the control MIC (plus kanamycin and chloramphenicol for the plasmids), 48 h. Fold change of barcode share against drug-free plates; higher = less susceptible. Active = above 20 in both replicates (the paper's putatively resistant). '<' = one read or none on drug, '>' = one read or none on a drug-free plate. Shares are relative, so most strains fall below 1 when a few take over. Listed are strains with at least 15 reads on both drug-free plates, and hits; most hits rest on fewer reference reads. Replicate rank correlation about 0.5. Edits are read from barcodes.

B1: purH V123A (protein)
chain: MQQRRPVRRALLSVSDKAGIVEFAQALSARGVELLSTGGTARLLAEKGLPVTEVSDYTGFPEMMDGRVKTLHPKVHGGILGRRGQDDAIMEEHQIQPIDMVVVNLYPFAQTVAREGCSLEDAAENIDIGGPTMVRSAAKNHKDVAIVVKSSDYDAIIKEMDDNEGSLTLATRFDLAIKAFEHTAAYDSMIANYFGSMVPAYHGESKEAAGRFPRTLNLNFIKKLDMRYGENSHQQAAFYIEENVKEASVATATQVQGKALSYNNIADTDAALECVKEFAEPACVIVKHANPCGVAIGNSILDAYDRAYKTDPTSAFGGIIAFNRELDAETAQAIISRQFVEVIIAPSASEEALKITAAKQNVRVLTCGQWGERVPGLDFKRVNGGLLVQDRDLGMVGAEELRVVTKRQPSEQELRDALFCWKVAKFVKSNAIVYAKNNMTIGIGAGQMSRVYSAKIAGIKAADEGLEVKGSSMASDAFFPFRDGIDAAAAAGVTCVIQPGGSIRDDEVIAAADEHGIAMLFTDMRHFRH
B2: purH V123Q (protein)
chain: MQQRRPVRRALLSVSDKAGIVEFAQALSARGVELLSTGGTARLLAEKGLPVTEVSDYTGFPEMMDGRVKTLHPKVHGGILGRRGQDDAIMEEHQIQPIDMVVVNLYPFAQTVAREGCSLEDAQENIDIGGPTMVRSAAKNHKDVAIVVKSSDYDAIIKEMDDNEGSLTLATRFDLAIKAFEHTAAYDSMIANYFGSMVPAYHGESKEAAGRFPRTLNLNFIKKLDMRYGENSHQQAAFYIEENVKEASVATATQVQGKALSYNNIADTDAALECVKEFAEPACVIVKHANPCGVAIGNSILDAYDRAYKTDPTSAFGGIIAFNRELDAETAQAIISRQFVEVIIAPSASEEALKITAAKQNVRVLTCGQWGERVPGLDFKRVNGGLLVQDRDLGMVGAEELRVVTKRQPSEQELRDALFCWKVAKFVKSNAIVYAKNNMTIGIGAGQMSRVYSAKIAGIKAADEGLEVKGSSMASDAFFPFRDGIDAAAAAGVTCVIQPGGSIRDDEVIAAADEHGIAMLFTDMRHFRH
B3: purD M336A (protein)
chain: MKVLVIGNGGREHALAWKAAQSPLVETVFVAPGNAGTALEPALQNVAIGVTDIPALLDFAQNEKIDLTIVGPEAPLVKGVVDTFRAAGLKIFGPTAGAAQLEGSKAFTKDFLARHKIPTAEYQNFTEVEPALAYLREKGAPIVIKADGLAAGKGVIVAMTLEEAEAAVHDMLAGNAFGDAGHRIVIEEFLDGEEASFIVMVDGEHVLPMATSQDHKRVGDKDTGPNTGGMGAYSPAPVVTDDVHQRTMERIIWPTVKGMAAEGNTYTGFLYAGLMIDKQGNPKVIEFNCRFGDPETQPIMLRMKSDLVELCLAACESKLDEKTSEWDERASLGVVAAAGGYPGDYRTGDVIHGLPLEEVAGGKVFHAGTKLADDEQVVTNGGRVLCVTALGHTVAEAQKRAYALMTDIHWDDCFCRKDIGWRAIEREQN
B4: purD M336Q (protein)
chain: MKVLVIGNGGREHALAWKAAQSPLVETVFVAPGNAGTALEPALQNVAIGVTDIPALLDFAQNEKIDLTIVGPEAPLVKGVVDTFRAAGLKIFGPTAGAAQLEGSKAFTKDFLARHKIPTAEYQNFTEVEPALAYLREKGAPIVIKADGLAAGKGVIVAMTLEEAEAAVHDMLAGNAFGDAGHRIVIEEFLDGEEASFIVMVDGEHVLPMATSQDHKRVGDKDTGPNTGGMGAYSPAPVVTDDVHQRTMERIIWPTVKGMAAEGNTYTGFLYAGLMIDKQGNPKVIEFNCRFGDPETQPIMLRMKSDLVELCLAACESKLDEKTSEWDERASLGVVQAAGGYPGDYRTGDVIHGLPLEEVAGGKVFHAGTKLADDEQVVTNGGRVLCVTALGHTVAEAQKRAYALMTDIHWDDCFCRKDIGWRAIEREQN
B5: purD M336W (protein)
chain: MKVLVIGNGGREHALAWKAAQSPLVETVFVAPGNAGTALEPALQNVAIGVTDIPALLDFAQNEKIDLTIVGPEAPLVKGVVDTFRAAGLKIFGPTAGAAQLEGSKAFTKDFLARHKIPTAEYQNFTEVEPALAYLREKGAPIVIKADGLAAGKGVIVAMTLEEAEAAVHDMLAGNAFGDAGHRIVIEEFLDGEEASFIVMVDGEHVLPMATSQDHKRVGDKDTGPNTGGMGAYSPAPVVTDDVHQRTMERIIWPTVKGMAAEGNTYTGFLYAGLMIDKQGNPKVIEFNCRFGDPETQPIMLRMKSDLVELCLAACESKLDEKTSEWDERASLGVVWAAGGYPGDYRTGDVIHGLPLEEVAGGKVFHAGTKLADDEQVVTNGGRVLCVTALGHTVAEAQKRAYALMTDIHWDDCFCRKDIGWRAIEREQN
B6: pssA I370A (protein)
chain: MLSKFKRNKHQQHLAQLPKISQSVDDVDFFYAPADFRETLLEKIASAKQRICIVALYLEQDDGGKGILNALYEAKRQRPELDVRVLVDWHRAQRGRIGAAASNTNADWYCRMAQENPGVDVPVYGVPINTREALGVLHFKGFIIDDSVLYSGASLNDVYLHQHDKYRYDRYHLIRNRKMSDIMFEWVTQNIMNGRGVNRLDDVNRPKSPEIKNDIRLFRQELRDAAYHFQGDADNDQLSVTPLVGLGKSSLLNKTIFHLMPCAEQKLTICTPYFNLPAILVRNIIQLLREGKKVEIIVGDKTANDFYIPEDEPFKIIGALPYLYEINLRRFLSRLQYYVNTDQLVVRLWKDDDNTYHLKGMWVDDKWMLATGNNLNPRAWRLDLENAILIHDPQLELAPQREKELELIREHTTIVKHYRDLQSIADYPVKVRKLIRRLRRIRIDRLISRIL

molecular target: Escherichia coli (laboratory strain); assay: barcode share on antibiotic plates over drug-free plates; higher = less susceptible; conditions: antibiotic: gentamicin; 2× MIC (MIC 0.45 µg/mL)
Description: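 A pool of E. coli strains, each edited to carry one amino-acid change in an essential protein, was grown for 48 h on minimal glucose agar with or without antibiotic; strain barcodes were sequenced; mean of two replicates.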

Question: With B1 as the protein, how does the “fold change of barcode share” value read?
Answer: The value was 0.0106 ± 0.012.

Question: For B2, which “fold change of barcode share” value is on record?
Answer: The value was 0.01941 ± 3.3e-05.

Question: With B3 as the protein, how does the “fold change of barcode share” value read?
Answer: The value was 0.0357 ± 0.046.

Question: Which “fold change of barcode share” value does the source give for B4 here?
Answer: Its value is 0.00787 ± 0.0068.

Question: B5 was tested. Which “fold change of barcode share” value did it give?
Answer: The value was 0.00529 ± 0.0045.

Question: Which “fold change of barcode share” value does the source give for B6 here?
Answer: The value was 0.0271 ± 0.018.
